Reference: the supplement of paper PMC8728848
Some of the results follow.

Legend:
Assay in all cases: glycan array binding signal (z-score within array); higher = stronger binding
Conditions in all cases: glycan notation: IUPAC condensed, linker removed
[1] = target: Fuc(a1-2)Gal
Procedure, shortened: (§1)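 Arrays were curated from the Consortium for Functional Glycomics database, 3228 in total, and kept only where the protein sequence was available. Binding is expressed as a within-array Z-score. This score was averaged across arrays of the same protein sequence at different concentrations or buffers and across linkers, and negative values can be read as non-binding.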

[2] = target: Fuc(a1-2)Gal(b1-3)GalNAc
Procedure, shortened: as §1

[3] = target: Fuc(a1-2)Gal(b1-3)GalNAc(b1-3)Gal
Procedure, shortened: as §1

[4] = target: Fuc(a1-2)Gal(b1-3)GalNAc(b1-3)Gal(a1-4)Gal(b1-4)Glc
Procedure, shortened: as §1

[5] = target: Fuc(a1-2)Gal(b1-3)GalNAc(b1-4)[Neu5Ac(a2-3)]Gal(b1-4)Glc
Procedure, shortened: as §1

[6] = target: Fuc(a1-2)Gal(b1-3)GlcNAc
Procedure, shortened: as §1

[7] = target: Fuc(a1-2)Gal(b1-3)GlcNAc(b1-3)Gal(b1-4)Glc
Procedure, shortened: as §1

[8] = target: Fuc(a1-2)Gal(b1-3)[Fuc(a1-4)]GlcNAc
Procedure, shortened: as §1

[9] = target: Fuc(a1-2)Gal(b1-4)Glc
Procedure, shortened: as §1

[10] = target: Fuc(a1-2)Gal(b1-4)Glc6S
Procedure, shortened: as §1

[11] = target: Fuc(a1-2)Gal(b1-4)GlcNAc
Procedure, shortened: as §1

[12] = target: Fuc(a1-2)Gal(b1-4)GlcNAc(b1-3)Gal(b1-4)GlcNAc
Procedure, shortened: as §1

[13] = target: Fuc(a1-2)Gal(b1-4)GlcNAc(b1-3)Gal(b1-4)GlcNAc(b1-3)Gal(b1-4)GlcNAc
Procedure, shortened: as §1

[14] = target: Fuc(a1-2)Gal(b1-4)GlcNAc6S
Procedure, shortened: as §1

[15] = target: Fuc(a1-2)Gal(b1-4)[Fuc(a1-3)]GlcNAc
Procedure, shortened: as §1

[16] = target: Fuc(a1-2)Gal(b1-4)[Fuc(a1-3)]GlcNAc(b1-3)Gal(b1-4)[Fuc(a1-3)]GlcNAc
Procedure, shortened: as §1

[17] = target: Fuc(a1-2)Gal(b1-4)[Fuc(a1-3)]GlcNAc(b1-3)Gal(b1-4)[Fuc(a1-3)]GlcNAc(b1-3)Gal(b1-4)[Fuc(a1-3)]GlcNAc
Procedure, shortened: as §1

[18] = target: Fuc(a1-2)Gal6S(b1-4)Glc
Procedure, shortened: as §1

[19] = target: Fuc(a1-2)Gal6S(b1-4)Glc6S
Procedure, shortened: as §1

[20] = target: Fuc(a1-2)Gal6S(b1-4)GlcNAc
Procedure, shortened: as §1

[21] = target: Fuc(a1-2)GlcNAc
Procedure, shortened: as §1

[22] = target: Fuc(a1-2)[Gal(a1-3)]Gal
Procedure, shortened: as §1

[23] = target: Fuc(a1-2)[Gal(a1-3)]Gal(b1-3)GlcNAc
Procedure, shortened: as §1

[24] = target: Fuc(a1-2)[Gal(a1-3)]Gal(b1-4)Glc
Procedure, shortened: as §1

[25] = target: Fuc(a1-2)[Gal(a1-3)]Gal(b1-4)GlcNAc
Procedure, shortened: as §1

[26] = target: Fuc(a1-2)[Gal(a1-3)]Gal(b1-4)[Fuc(a1-3)]GlcNAc
Procedure, shortened: as §1

[27] = target: Fuc(a1-2)[Gal(a1-4)]Gal(b1-4)GlcNAc
Procedure, shortened: as §1

[28] = target: Fuc(a1-2)[GalNAc(a1-3)]Gal
Procedure, shortened: as §1

[29] = target: Fuc(a1-2)[GalNAc(a1-3)]Gal(b1-3)GlcNAc
Procedure, shortened: as §1

[30] = target: Fuc(a1-2)[GalNAc(a1-3)]Gal(b1-4)Glc
Procedure, shortened: as §1

[31] = target: Fuc(a1-2)[GalNAc(a1-3)]Gal(b1-4)GlcNAc
Procedure, shortened: as §1

[32] = target: Fuc(a1-2)[GalNAc(a1-3)]Gal(b1-4)[Fuc(a1-3)]GlcNAc
Procedure, shortened: as §1

[33] = target: Fuc(a1-2)[GalNAc(a1-4)]Gal(b1-4)GlcNAc
Procedure, shortened: as §1

[34] = target: Fuc(a1-2)[GalNAc(b1-3)]Gal
Procedure, shortened: as §1

[35] = target: Fuc(a1-3)GlcNAc
Procedure, shortened: as §1

[36] = target: Fuc(a1-3)[Gal(b1-4)]Glc6S
Procedure, shortened: as §1

[37] = target: Fuc(a1-3)[Gal(b1-4)]GlcNAc
Procedure, shortened: as §1

[38] = target: Fuc(a1-3)[Gal(b1-4)]GlcNAc(b1-2)Man(a1-3)[Fuc(a1-3)[Gal(b1-4)]GlcNAc(b1-2)Man(a1-6)]Man(b1-4)GlcNAc(b1-4)GlcNAc
Procedure, shortened: as §1

[39] = target: Fuc(a1-3)[Gal(b1-4)]GlcNAc(b1-2)Man(a1-6)[Gal(b1-4)GlcNAc(b1-2)Man(a1-3)]Man(b1-4)GlcNAc(b1-4)GlcNAc
Procedure, shortened: as §1

[40] = target: Fuc(a1-3)[Gal(b1-4)]GlcNAc(b1-3)Gal(b1-3)[Fuc(a1-4)]GlcNAc
Procedure, shortened: as §1

[41] = target: Fuc(a1-3)[Gal(b1-4)]GlcNAc(b1-4)Gal(b1-4)[Fuc(a1-3)]GlcNAc
Procedure, shortened: as §1

[42] = target: Fuc(a1-3)[Gal(b1-4)]GlcNAc(b1-4)Gal(b1-4)[Fuc(a1-3)]GlcNAc(b1-4)Gal(b1-4)[Fuc(a1-3)]GlcNAc
Procedure, shortened: as §1

[43] = target: Fuc(a1-3)[Gal(b1-4)]GlcNAc6S
Procedure, shortened: as §1

[44] = target: Fuc(a1-3)[Gal3S(b1-4)]Glc6S
Procedure, shortened: as §1

[45] = target: Fuc(a1-3)[Gal3S(b1-4)]GlcNAc
Procedure, shortened: as §1

[46] = target: Fuc(a1-3)[Gal3S(b1-4)]GlcNAc6S
Procedure, shortened: as §1

[47] = target: Fuc(a1-3)[GalNAc(b1-4)]GlcNAc
Procedure, shortened: as §1

[48] = target: Fuc(a1-4)GlcNAc
Procedure, shortened: as §1

[49] = target: Fuc(b1-3)GlcNAc
Procedure, shortened: as §1

[50] = target: Gal(a1-2)Gal
Procedure, shortened: as §1

[51] = target: Gal(a1-3)Gal
Procedure, shortened: as §1

[52] = target: Gal(a1-3)Gal(b1-3)GlcNAc
Procedure, shortened: as §1

[53] = target: Gal(a1-3)Gal(b1-4)Glc
Procedure, shortened: as §1

[54] = target: Gal(a1-3)Gal(b1-4)GlcNAc
Procedure, shortened: as §1

[55] = target: Gal(a1-3)Gal(b1-4)[Fuc(a1-3)]GlcNAc
Procedure, shortened: as §1

[56] = target: Gal(a1-3)GalNAc
Procedure, shortened: as §1

[57] = target: Gal(a1-3)[Gal(a1-4)]Gal(b1-4)GlcNAc
Procedure, shortened: as §1

[58] = target: Gal(a1-4)Gal(b1-4)Glc
Procedure, shortened: as §1

[59] = target: Gal(a1-4)Gal(b1-4)GlcNAc
Procedure, shortened: as §1

[60] = target: Gal(a1-4)GlcNAc
Procedure, shortened: as §1

B1: L-Selectin (Mus musculus), P18337 (protein)
chain: MVFPWRCEGTYWGSRNILKLWVWTLLCCDFLIHHGTHCWTYHYSEKPMNWENARKFCKQNYTDLVAIQNKREIEYLENTLPKSPYYYWIGIRKIGKMWTWVGTNKTLTKEAENWGAGEPNNKKSKEDCVEIYIKRERDSGKWNDDACHKRKAALCYTASCQPGSCNGRGECVETINNHTCICDAGYYGPQCQYVVQCEPLEAPELGTMDCIHPLGNFSFQSKCAFNCSEGRELLGTAETQCGASGNWSSPEPICQVVQCEPLEAPELGTMDCIHPLGNFSFQSKCAFNCSEGRELLGTAETQCGASGNWSSPEPICQETNRSFSKIKEGDYNPLFIPVAVMVTAFSGLAFLIWLARRLKKGKKSQERMDDPY
glycan array binding signal (z-score) [1]: -0.197
glycan array binding signal (z-score) [2]: -0.486
glycan array binding signal (z-score) [3]: -0.286
glycan array binding signal (z-score) [4]: -0.383
glycan array binding signal (z-score) [5]: -0.191
glycan array binding signal (z-score) [6]: -0.53
glycan array binding signal (z-score) [7]: -0.225
glycan array binding signal (z-score) [8]: -0.466
glycan array binding signal (z-score) [9]: -0.154
glycan array binding signal (z-score) [10]: 0.005
glycan array binding signal (z-score) [11]: -0.304
glycan array binding signal (z-score) [12]: -0.341
glycan array binding signal (z-score) [13]: -0.485
glycan array binding signal (z-score) [14]: -0.448
glycan array binding signal (z-score) [15]: -0.243
glycan array binding signal (z-score) [16]: -0.328
glycan array binding signal (z-score) [17]: 0.041
glycan array binding signal (z-score) [18]: 0.379
glycan array binding signal (z-score) [19]: 1.21
glycan array binding signal (z-score) [20]: -0.072
glycan array binding signal (z-score) [21]: -0.484
glycan array binding signal (z-score) [22]: -0.228
glycan array binding signal (z-score) [23]: -0.274
glycan array binding signal (z-score) [24]: -0.253
glycan array binding signal (z-score) [25]: -0.154
glycan array binding signal (z-score) [26]: -0.151
glycan array binding signal (z-score) [27]: -0.208
glycan array binding signal (z-score) [28]: -0.448
glycan array binding signal (z-score) [29]: -0.275
glycan array binding signal (z-score) [30]: -0.194
glycan array binding signal (z-score) [31]: -0.16
glycan array binding signal (z-score) [32]: -0.294
glycan array binding signal (z-score) [33]: -0.599
glycan array binding signal (z-score) [34]: -0.546
glycan array binding signal (z-score) [35]: -0.232
glycan array binding signal (z-score) [36]: -0.1
glycan array binding signal (z-score) [37]: 0.162
glycan array binding signal (z-score) [38]: -0.434
glycan array binding signal (z-score) [39]: -0.638
glycan array binding signal (z-score) [40]: -0.272
glycan array binding signal (z-score) [41]: -0.219
glycan array binding signal (z-score) [42]: -0.04
glycan array binding signal (z-score) [43]: 0.212
glycan array binding signal (z-score) [44]: 3.99
glycan array binding signal (z-score) [45]: 0.044
glycan array binding signal (z-score) [46]: 4.9
glycan array binding signal (z-score) [47]: -0.454
glycan array binding signal (z-score) [48]: -0.193
glycan array binding signal (z-score) [49]: -0.381
glycan array binding signal (z-score) [50]: -0.049
glycan array binding signal (z-score) [51]: 0.253
glycan array binding signal (z-score) [52]: -0.538
glycan array binding signal (z-score) [53]: -0.265
glycan array binding signal (z-score) [54]: -0.445
glycan array binding signal (z-score) [55]: 0.01
glycan array binding signal (z-score) [56]: -0.386
glycan array binding signal (z-score) [57]: -0.377
glycan array binding signal (z-score) [58]: -0.052
glycan array binding signal (z-score) [59]: 0.031
glycan array binding signal (z-score) [60]: 0.318
